Experimental data published in the supplement of paper PMC3334620.
Whole data set: some 33,000 sequences, median “E-score (-0.5 to 0.5)” near -0.035, cut for the highest 2% near 0.34. Some of the results follow.

Molecular target: T1, Mot3 (UniProt P54785)
T1 sequence: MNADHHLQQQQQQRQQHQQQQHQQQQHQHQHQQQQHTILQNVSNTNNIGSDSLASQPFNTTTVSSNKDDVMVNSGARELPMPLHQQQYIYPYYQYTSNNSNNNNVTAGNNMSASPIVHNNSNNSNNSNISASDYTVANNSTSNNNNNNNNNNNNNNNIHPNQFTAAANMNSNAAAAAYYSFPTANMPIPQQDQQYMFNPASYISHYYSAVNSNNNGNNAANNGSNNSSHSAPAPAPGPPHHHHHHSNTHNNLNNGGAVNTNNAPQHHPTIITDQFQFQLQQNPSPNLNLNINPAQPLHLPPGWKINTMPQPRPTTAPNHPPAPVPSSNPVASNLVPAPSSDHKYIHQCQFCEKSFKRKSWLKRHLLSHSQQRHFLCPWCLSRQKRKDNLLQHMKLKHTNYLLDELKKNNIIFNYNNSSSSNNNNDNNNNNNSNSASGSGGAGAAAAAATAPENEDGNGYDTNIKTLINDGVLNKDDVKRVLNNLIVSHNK
Assay: PBM E-score (8-mer binding enrichment) (E-score (-0.5 to 0.5)); higher = stronger / more preferred TF binding; most listed sequences are background and not binding sites
Conditions: protein concentration: 200 nM; construct: GST-full length
Method in brief: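 E-scores (a modified Wilcoxon-Mann-Whitney statistic) were assigned by the Universal PBM Analysis Suite to every ungapped eight-base word pooled with its reverse complement. The input came from universal all-10-mer Agilent arrays made double-stranded by primer extension and probed with GST-tagged yeast transcription factors at about 100-200 nM. Fluorescent anti-GST detected bound protein, and masliner normalised the scans.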

Row | Sequence | PBM E-score
1 | GAGGCCGC | -0.142
2 | CTACCATC | -0.12
3 | AGAGCTTA | -0.126
4 | ATCTCATA | -0.0395
5 | CGCATTAC | 0.17
6 | GCTGCACC | -0.222
7 | CGGACCCG | -0.308
8 | ACCTCATC | -0.0389
9 | CGGGCTTA | -0.182
10 | CGGTTTTC | -0.134
11 | ATCGACAT | 0.285
12 | ATGTAGGA | 0.158
13 | AGTATATC | -0.0374
14 | AAAAGAGC | -0.0689
15 | CGTAACTA | 0.111
16 | CGTTCGGC | -0.256
17 | GCAAAACA | 0.0388
18 | GTCATTCA | -0.067
19 | GTACGTAC | 0.157
20 | CCCTCGAC | -0.298
21 | CGCGGGGA | 0.0397
22 | ACCCGTAA | -0.0263

Row | Sequence | PBM E-score
23 | AATACTAT | -0.0357
24 | CGTCGGCC | -0.188
25 | GACTTGGC | -0.292
26 | GAGCCTTA | 0.185
27 | ATGACAAG | 0.0835
28 | CCCCCTCG | -0.338
29 | GTCTGCTA | 0.0638
30 | ATAGAATA | 0.148
31 | AAGGAGGC | 0.0693
32 | CAAGACCA | -0.0228
33 | ATTATGGG | -0.0982
34 | CATGACGC | 0.0894
35 | ACTTCTGC | 0.0157
36 | ATCTATCA | -0.00093
37 | CTGCAACA | 0.0762
38 | CCTGTGTA | 0.357
39 | AAGATATA | 0.0835
40 | AGGGTGTC | -0.152
41 | CAGGAGAG | -0.299
42 | CCAAGAGG | -0.324
43 | AGAGCAAA | -0.0297
44 | AGAGATAC | 0.0499

Row | Sequence | PBM E-score
45 | CGCCAAGC | -0.164
46 | AACAGCAA | 0.0647
47 | ACCTCGCA | -0.0135
48 | AACCGTGA | 0.0392
49 | ACACACGC | 0.174
50 | ACTTGTTG | 0.171
51 | CTTACCCC | -0.299
52 | CTCAGAAA | 0.0867
53 | CGGCTCTA | -0.023
54 | ACCAATAT | 0.0303
55 | AAGGAGTG | 0.037
56 | ATGTACCG | 0.121
57 | CAGACTAA | 0.0199
58 | AAGAGACG | -0.115
59 | AGTACGCA | 0.11
60 | CGGCCATA | -0.286
61 | ACGCAATG | 0.23
62 | CAGCATAG | 0.0625
63 | CAGAGTCG | -0.176
64 | AGGTCTTA | -0.206
65 | ATGTAAAG | 0.411
66 | CGCCATAG | -0.062

Row | Sequence | PBM E-score
67 | ATAGCACC | -0.18
68 | GAGACCTC | -0.165
69 | CTCGGCGC | 0.0632
70 | CACGGTGA | 0.0322
71 | ACGAAGCG | -0.237
72 | ATCGACGA | -0.231
73 | CCGACTAC | -0.101
74 | CACCACTG | -0.157
75 | CTTGCGCC | 0.00463
76 | CAGGTCCA | 0.0178
77 | GTTCGTGA | -0.225
78 | AAGAGGCC | -0.401
79 | AGCGCCCT | -0.194
80 | GTGACCGA | -0.281
81 | GACCGACC | -0.126
82 | GGTAGACC | -0.232
83 | AGTACGTA | 0.227
84 | CAAAGTGG | -0.258
85 | CAGCGGAG | -0.221
86 | ACCTTCGC | 0.0938
87 | CACGAGTC | -0.164
88 | CTCTAATC | -0.191

Row | Sequence | PBM E-score
89 | GACCGGAC | -0.175
90 | ATATTGAA | -0.0499
91 | AATCATAG | 0.157
92 | CAAACGAG | 0.00468
93 | CAACAGCA | 0.145
94 | ATCCCCAC | -0.158
95 | CCAGGGAC | -0.205
96 | ATGTCTTC | 0.018
97 | ACCCAAAC | 0.00273
98 | CTAGTGAA | -0.0434
99 | AGCTGCGA | -0.252
100 | GCCATTCA | -0.193
101 | GCTGATGA | -0.0248
102 | ATTCTTTG | 0.14
103 | ATTAAGGA | 0.0441
104 | CGGTGCCA | -0.377
105 | CTGCGCGC | -0.0095
106 | GTATTACA | 0.326
107 | AACTATCA | -0.0191
108 | TCCGCGCA | -0.0796
109 | AGATGGCA | -0.0761
